Source: publication PMC4629154
Read-outs that look alike come from different tables or passages of the source. Results are given in words; binding and its absence hold for the method and conditions named. In cells and extracts the contact can be indirect. Some entries that bind do so weakly or less than the wild type. For some assays here: Tags and fused reporters may be left off the sequences shown.

The chains behind the UniProt entries cited, without tags or fusion partners.
UniProt Q96EB6: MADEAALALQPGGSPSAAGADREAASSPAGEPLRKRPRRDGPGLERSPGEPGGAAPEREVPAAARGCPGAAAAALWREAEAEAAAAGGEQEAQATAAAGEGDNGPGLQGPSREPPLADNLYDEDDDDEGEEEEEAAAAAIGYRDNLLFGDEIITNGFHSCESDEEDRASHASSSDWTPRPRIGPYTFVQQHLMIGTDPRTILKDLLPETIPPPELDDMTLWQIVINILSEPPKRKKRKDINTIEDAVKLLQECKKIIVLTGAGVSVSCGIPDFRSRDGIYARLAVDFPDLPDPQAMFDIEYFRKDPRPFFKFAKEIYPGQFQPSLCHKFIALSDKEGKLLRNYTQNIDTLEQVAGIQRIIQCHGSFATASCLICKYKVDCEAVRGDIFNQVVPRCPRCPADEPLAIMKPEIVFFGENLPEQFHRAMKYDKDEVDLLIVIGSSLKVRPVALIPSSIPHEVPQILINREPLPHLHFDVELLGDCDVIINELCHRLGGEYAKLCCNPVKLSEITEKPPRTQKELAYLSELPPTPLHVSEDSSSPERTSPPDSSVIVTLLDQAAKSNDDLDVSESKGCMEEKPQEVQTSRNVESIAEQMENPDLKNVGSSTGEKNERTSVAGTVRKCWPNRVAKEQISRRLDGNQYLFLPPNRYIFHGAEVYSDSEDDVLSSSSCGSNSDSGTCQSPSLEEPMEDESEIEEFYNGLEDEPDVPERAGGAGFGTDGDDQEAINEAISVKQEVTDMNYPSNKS
UniProt O14980: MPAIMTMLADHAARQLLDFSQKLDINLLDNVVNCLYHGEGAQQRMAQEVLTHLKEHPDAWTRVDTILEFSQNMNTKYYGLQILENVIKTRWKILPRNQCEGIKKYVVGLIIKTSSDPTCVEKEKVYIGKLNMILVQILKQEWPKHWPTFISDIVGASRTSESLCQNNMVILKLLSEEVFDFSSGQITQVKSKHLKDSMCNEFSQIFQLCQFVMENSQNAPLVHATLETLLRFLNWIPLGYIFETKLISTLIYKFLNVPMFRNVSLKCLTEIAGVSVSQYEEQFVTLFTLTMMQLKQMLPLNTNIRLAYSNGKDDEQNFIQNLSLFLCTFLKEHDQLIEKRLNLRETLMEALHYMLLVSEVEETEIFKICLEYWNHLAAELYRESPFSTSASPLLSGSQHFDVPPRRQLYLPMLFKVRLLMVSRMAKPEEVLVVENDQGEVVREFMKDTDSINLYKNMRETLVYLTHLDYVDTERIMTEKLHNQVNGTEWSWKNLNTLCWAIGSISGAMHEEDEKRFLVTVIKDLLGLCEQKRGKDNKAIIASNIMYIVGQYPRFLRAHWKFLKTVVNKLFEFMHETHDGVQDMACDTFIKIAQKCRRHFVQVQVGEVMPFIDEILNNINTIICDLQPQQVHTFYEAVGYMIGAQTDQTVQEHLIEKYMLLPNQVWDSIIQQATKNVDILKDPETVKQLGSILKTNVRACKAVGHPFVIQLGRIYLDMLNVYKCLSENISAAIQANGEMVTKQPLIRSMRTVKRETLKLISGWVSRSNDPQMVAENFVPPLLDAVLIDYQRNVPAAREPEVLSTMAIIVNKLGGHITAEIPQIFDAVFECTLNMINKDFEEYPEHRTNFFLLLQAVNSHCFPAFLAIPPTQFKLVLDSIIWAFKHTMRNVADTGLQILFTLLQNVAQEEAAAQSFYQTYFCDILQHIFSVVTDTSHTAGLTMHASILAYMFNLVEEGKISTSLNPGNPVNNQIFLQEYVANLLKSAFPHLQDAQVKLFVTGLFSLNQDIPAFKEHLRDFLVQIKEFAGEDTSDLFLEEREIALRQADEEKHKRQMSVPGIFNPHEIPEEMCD

Assays:
[1] = target: Flag-tagged HMGB1 (high-mobility group box 1), full length (mouse) (UniProt P63158); assay: co-IP; HEK293T cells co-transfected for 48 h; whole-cell lysates (PRO-PREP), pre-cleared; anti-Flag antibody (1 ug) overnight at 4 °C, protein G Sepharose 4 h; immunoblot; in some panels cells treated with LPS, TNF-α, Poly (I:C), IFN-γ, resveratrol or sirtinol, or co-transfected with HA-PCAF
[2] = target: Flag-HMGB1 K282930R (hypo-acetylation mutant) (mouse) (UniProt P63158); assay: as above
[3] = target: GST-fused SIRT1 protein (human) (UniProt Q96EB6); assay: pull-down; GST-SIRT1 from E. coli immobilised on glutathione-Sepharose 4B beads, incubated with lysates of transfected HEK293T cells overnight (20 h) at 4 °C, washed thrice with PBS; immunoblot; in some panels cells treated with stimuli for 3 h; only the target purified
Myc-tagged SIRT1 (human) = Myc-tagged SIRT1 (human) (UniProt Q96EB6); assay: co-IP; HEK293T cells co-transfected for 48 h; whole-cell lysates; anti-Myc antibody for immunoprecipitation, anti-Flag antibody for immunoblot; in one panel cells treated with LPS
[4] = target: GST-fused SIRT1 protein (human) (UniProt Q96EB6); assay: pull-down; GST-SIRT1 from E. coli immobilised on glutathione-Sepharose 4B beads, incubated with lysates of transfected HEK293T cells overnight (20 h) at 4 °C, washed thrice with PBS; immunoblot; in some panels cells treated with stimuli for 3 h; only the target purified; remark: listed apart in the source

## HA-tagged chromosome region maintenance 1 (CRM1) (from UniProt O14980 1-1071)
[1]
  binding: binds
[2]
  binding: binds

## Flag-tagged HMGB1 (high-mobility group box 1), full length (from UniProt P63158 1-215)
[3]
  binding: binds
Myc-tagged SIRT1 (human)
  binding: binds

## Flag-HMGB1-B (aa 89-185) (from UniProt P63158 89-185) (domain or fragment)
[3]
  binding: no binding

## Flag-HMGB1-A&B (aa 1-185) (from UniProt P63158 1-185) (domain or fragment)
[3]
  binding: binds

## Flag-HMGB1-B&C (aa 89-215) (from UniProt P63158 89-215) (domain or fragment)
[3]
  binding: no binding

B1: Flag-HMGB1-A (aa 1-88) (domain or fragment, UniProt P63158 1-88)
chain: MGKGDPKKPRGKMSSYAFFVQTCREEHKKKHPDASVNFSEFSKKCSERWKTMSAKEKGKFEDMAKADKARYEREMKTYIPPKGETKKK
[4]
  binding: binds
